Recombinant human monoclonal antibodies (heavy:light variable regions). ELISA EC50 on the named antigen, from 10 µg/ml down; IC50 against spike pseudovirus on HT1080-ACE2 cells, 48 h; lower = stronger. Calls: IC50 above 1,000 ng/ml = non-neutralizing; EC50 above 1,000 ng/ml = non-binder.
What was measured:
[1] = target: SARS-CoV-2 Omicron BA.1 spike pseudovirus; test: pseudovirus neutralization IC50; higher = weaker neutralization
Protocol: (§1)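 Single-round luciferase reporter pseudovirus mixed with antibody dilutions and put on HT1080-ACE2 clone 14 cells for 48 h; signal relative to no-antibody wells, four-parameter fit.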

[2] = target: SARS-CoV-2 Omicron BA.4/5 spike pseudovirus; test: as above
Protocol: as §1

[3] = target: SARS-CoV-2 Wuhan-Hu-1 spike pseudovirus; test: as above
Protocol: as §1

[4] = target: SARS-CoV-2 Wuhan-Hu-1 spike receptor-binding domain; test: ELISA binding EC50; higher = weaker binding; ELISA of recombinant human antibody on coated antigen, from 10 µg/ml in fourfold dilutions; four-parameter fit.

Binder	pseudovirus neutralization IC50 [1] [ng/mL]	pseudovirus neutralization IC50 [2] [ng/mL]	pseudovirus neutralization IC50 [3] [ng/mL]	ELISA binding EC50 [4] [ng/mL]
C5163 (protein) chain 1: QVQLVQSGAEVKKPGASVKVSCKASGYTFTSYHIDWVRQATGQGLEWMGWMNPVSGNTGYAQKFQGRLTMTRDTSITTAYMELSGLRSDDTAMYFCARGPLWYDTSGRAFHIWGQGTMVTVSS chain 2: QSALTQPASVSGSPGQSITISCTGTSSDIGNYNYVSWYQQHPGKAPRLIIFDVSDRPSGVSHRFSGSKSGNTASLTISGLQTEDEADYYCASYTTSSTLLFGGGTKLTVL	> 1000	> 1000	0.4	3.81
C5225 (protein) chain 1: QVQLVQSGAEVKKPGSSVKVSCKASGGTFSRYAFSWVRQAPGQGLEWMGGIIPVFGTTNYAQKFQGRVIITADKSTSTAYMELSSLRSEDTAVYYCARDRQIQPNNYYHSGMDVWGQGTTVTVSS chain 2: DIQMTQSPSSLSASVGDRVTITCQASQDITNSLNWYQQKPGRAPKLLIYDASNLDTGVPSRFSGSGSGTDFTFTISSLQPEDIATYYCQQYENLPTFGPGTKVDIK	3.89	> 1000	2.89	3.29
C5226 (protein) chain 1: EVQLVESGGGLIQPGGSLRLSCAASGLTVSSNYMSWVRQAPGKGLEWVSVFYPGGTTYYADSVKGRFTISRDNSKNTLYLQMNSLRAEDTAVYYCARGAGHYYGMDVWGQGTTVTVSS chain 2: DIQLTQSPSLLSASVGDRVTVTCRASQGISNYLAWYQQKPGKAPKLLIYAASTLQSGVPSRFSGSGAGTEFTLTISRLQPEDFGTYYCQQLNSYPKLTFGGGTKVEIK	> 1000	> 1000	14.9	6.72
C5227 (protein) chain 1: EVQLVESGGGLIQPGRSLRLSCAASGFTFDDYAIHWVRQAPGKGLEWVSGISANGGIIGYADSVKGRFTISRDNAKNSLHLQMNRLRAEDTAFYYCAKDHRTYYDVLTGFYVWKGFFDYWGQGTLVTVSS chain 2: DIQMTQSPSSLSASVGDRVTITCRASQGISNSLAWYQQKPGKAPRLLLYAASTLESGVPSRFSGSGSGTDFTLTISSLQPEDFATYYCQQYYSSLLFTFGP	44.1	> 1000	11.3	3.54
C5228 (protein) chain 1: QLQLQESGPGLVKPSETLSLICTVSGGSISSSSNYWGWIRQPPGKGPEWIGTIYNRETTYYNPSLKTRLTISVDTSKNQFSLKMSSVTAADTAVYYCANIVGAAFHWGQGTLVTVSS chain 2: DIQMTQSPSSLSASVGDRVTITCRASQSIGKYLNWYQQKPGKAPNLLIYTASSLQSGVPSRFSGSGSGTEFTLTISSLQAEDFATYYCQQTYSMPEVTFGPGTKVDIK	1.79	3.53	2.07	2.97
C5229 (protein) chain 1: EVQLVESGGGLVQPGGSLRLSCAASGFTFRNYDMHWVRQTTGKRLEWVSVIGTAGDTYYSDSVKGRFTISRENAKNSLYLHMTSLRAGDTAVYYCARGATMTTVAFDIWGQGTMVTVSS chain 2: DIQMTQSPSSLSASVGDRVTISCQASQDISNYLNWYQQKPGKAPKLLISDASNLETGVPSRFSGRGSGTDFTFTISSLQPEDIATYYCLQYDNLPITFGQGTRLEIK	> 1000	> 1000	> 1000	2.82
C5038 (protein) chain 1: EVQLLESGGGLVQPGGSLRLSCAASGFTFKMFAVSWVRQAPGKGLEWVSTITGPVINTFYADSVKGRFTISRDNSKNTLYLQMDSLRADDTALYYCAKDREDQSIVPNAPFDSWGQGTLVTVSS chain 2: QSALTQPASVSGGPGQSITISCTGTSSDIGDYNYVSWYQQHPGKAPKLIIFDVSNRPSGVSHRFSGSKSGNTASLTISGLQADDEADYYCSSYTSSSSLAFGTGTTVTVL	25.7	> 1000	16.5	3.17
C5230 (protein) chain 1: EVQLVESGGGLIQPGGSLRLSCAASGLIVSSNYMNWVRQAPGKGLEWISVIYSGGSTFYADSVKGRFTISRDNSKNTLYLQMKSLRVEDTAVYYCARLGSYGRDGYDVWGQGTLVTVSS chain 2: SYELTQPPSVSVAPGQTARITCGGNNFGNKSVHWYQQRPGQAPVLVVYDDSDRPSGIPERFSGSKSGNTATLTISRVEAGDEADYYCQVWDSSNDRGVFGTGTKVTVL	> 1000	3.67	4.53	4.49
C5231 (protein) chain 1: QVQLVQSGAEVKKPGSSVKVSCKTSGHTFSRYAINWVRQAPGQGLEWMGWIIPISGITNYAQSFQGRVTITADESTNTAFMELRGLRSEDTAMYYCARTLYHYDRSGYQRTDDAFDIWGQGTMVTVSS chain 2: QSVLTQPPSVSGAPGQRVTISCSGSSSNFGASYDVHWYQQLPGTAPKLLIYGNSNRPSGVPDRFSGSKSGTSASLAITGLQPEDEADYYCQSYDNSLVIFGGGTKLTV	127	> 1000	86.6	6.05
C5232 (protein) chain 1: QVQLQESGPGRVKPSQTLSLTCTVSDGSITSGAYYWSWIRQHPGKGLEWIGFIYNSGSDYNPSLKSRVTISVDTSKNQYSMKLNSVTAADTAVYFCARSAWRRGEFQHWGQGTLVTVSS chain 2: DIQMTQSPSSLSASVGDRITITCRASQNIINYLNWYQQKPGKAPKLLIFTASSLQSGVPSRFSGSGSGTDFTLTISSLQPEDFATYYCQQSYVTPQVTF	> 1000	855	42.8	5.21
C5233 (protein) chain 1: QVQLVESGGGVVQPGRSLRLSCAASGFNFNNYDMHWVRQAPGRGPEWVALISDDGRGAFYADSVKGRFTISRDNSRNTLYLQMNSLRAEDTAVYFCARDSDTTVVPVFDYWGQGTLVTVSS chain 2: DIVMTQSPDSLAASLGERATINCKSSQSVLYSSNNKNYLAWYQQKPGQPPKLLIYWASTRESGVPDRFSGSGSGTDFTLTISSLQADDVAVYYCQQYYINPYTFGQGTKLEIK	> 1000	985	637	3.06
C5234 (protein) chain 1: EVQLVQSGAEVKKPGESLKISCEGSGFTFTNYWIGWVRQMPGKGLEWMGIIYPDDSDTTYSPSFEGQVTISADKSISTAYLQWSSLKASDTAMYYCARLLHGYSYGIIDFWGQGTLVTVSS chain 2: NFMLTQPHSVSESPGKTVTISCTGSGGSIASNYVQWYQQRPGSAPTNVIYEDNQRPSGVPGRFSGSIDSSSNSASLTISGLKTEDEADYYCQSYDVGNYVVFGGGTKLTVL	> 1000	> 1000	> 1000	7.31
C5166 (protein) chain 1: QVQLVQSGAEVKKPGASVKVSCKASGYTFMNYYIHWVRQAPGQGLEWMGIINPTGGGTTYAQKFQGRVTMTRDTSTSTVILELSMLTSEDTAVYYCARDGIVTTGGEYYYYYGMDVWGQGTTVTVSS chain 2: QSALTQPASVSGSPGQSITISCTGTSSDVGGSKYVSWYQQHPGKAPKLMIYEVSHRPSGISHRVSGSKSGNTASLTISGLQAEDEGDYYCSSYTTTSTWEFGGGTKLTVL	22.6	> 1000	20.8	4.47
C5167 (protein) chain 1: QVQLVQSGAEVKKPGSSVTVSCKASGGTFSIYAISWVRQAPGQGFEWMGGIIPMSGTAHYAQRFQGRVTITADESTTTAYMEVSSLRSDDTAVYFCARDMRYYYDSSGYSNYFDYWGQGTLVTVSS chain 2: DIQMTQSPSSLSASVGDRVTITCRASQGISIYLNWYQQKPGIAPKLLIYGASNLQSGVPSRFSGSGSGTDFALTISSLQPEDFATYYCQQSYSMRTFGGGTKVEIK	1.57	> 1000	0.713	3.38
C5168 (protein) chain 1: QVQLVQSGPEVKKPGSSVKVSCKASGGTFRDHALSWVRQAPGQGLEWMGKIIPVFNAVNYEQKFQGRVTISADKSTSTVYMELSSLKFDDTAVYFCARSPAPHIAIEEWFDPWGQGTLVTVSS chain 2: QSVLTQPPSVSGAPGQRVTISCTGSSSNIGAGYDVHWYQQLPGTAPKLLIYGNNNRPSGVPDRFSGSKSGTSASLAISGLQAEDEADYYCQSYDSSVSVFYVFGTGTKVTV	1.65	> 1000	0.332	3.7

From the supplement of paper PMC10300432
